Test [1] concerns the target BZR1-YFP, in transgenic Arabidopsis plants (Arabidopsis thaliana) (UniProt Q8S307). In words: co-IP; transgenic Arabidopsis plants expressing both fusion proteins from the 35S promoter, treated with 100 nM BL for 4 hr; IP with anti-GFP on protein A/G agarose beads, blot with anti-Myc; IP buffer 50 mM Tris-Cl pH7.5, 1 mM EDTA, 75 mM NaCl, 0.1% Triton X-100, 5% Glycerol.
The target in test [2] is T1, PIF4-YFP, in transgenic Arabidopsis plants (Arabidopsis thaliana) (UniProt Q8W2F3).
T1 sequence: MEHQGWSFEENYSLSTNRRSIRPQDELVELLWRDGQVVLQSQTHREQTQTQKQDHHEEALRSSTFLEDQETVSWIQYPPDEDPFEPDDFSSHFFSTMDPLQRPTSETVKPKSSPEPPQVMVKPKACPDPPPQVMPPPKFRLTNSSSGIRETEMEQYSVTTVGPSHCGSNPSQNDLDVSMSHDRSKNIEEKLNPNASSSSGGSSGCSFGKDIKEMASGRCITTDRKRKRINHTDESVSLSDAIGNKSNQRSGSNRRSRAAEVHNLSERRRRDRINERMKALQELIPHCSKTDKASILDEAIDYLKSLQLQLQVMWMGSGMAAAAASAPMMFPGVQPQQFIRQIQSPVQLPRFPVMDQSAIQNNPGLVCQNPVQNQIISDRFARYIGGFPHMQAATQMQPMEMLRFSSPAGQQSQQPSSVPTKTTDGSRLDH
The description is as above.

Sequences of proteins named here, by UniProt entry; tags and fusion partners are left off.
UniProt Q8S307: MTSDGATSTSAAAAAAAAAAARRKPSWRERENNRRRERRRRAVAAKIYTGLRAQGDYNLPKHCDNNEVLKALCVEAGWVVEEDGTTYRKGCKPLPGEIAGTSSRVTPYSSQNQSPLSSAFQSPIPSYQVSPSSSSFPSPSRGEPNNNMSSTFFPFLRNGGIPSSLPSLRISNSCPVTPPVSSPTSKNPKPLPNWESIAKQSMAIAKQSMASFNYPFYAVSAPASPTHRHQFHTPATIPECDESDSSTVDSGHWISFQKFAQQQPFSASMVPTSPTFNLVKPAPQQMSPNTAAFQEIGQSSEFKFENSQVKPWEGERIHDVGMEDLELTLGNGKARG

Test [3] concerns the target T2, PIF4-GFP, in Arabidopsis mesophyll protoplasts (Arabidopsis thaliana) (UniProt Q8W2F3).
T2 sequence: T1 sequence
In words: co-IP; Arabidopsis mesophyll protoplasts transfected to express ARF6-Myc alone or with PIF4-GFP and rga-Δ17-Myc; IP with anti-GFP, blots with anti-Myc or anti-GFP.

Test [4] deals with T2, PIF4-GFP, in Arabidopsis mesophyll protoplasts (Arabidopsis thaliana). The test is described as follows: co-IP; Arabidopsis mesophyll protoplasts transfected and incubated overnight; IP with anti-GFP, blots with anti-Myc or anti-GFP; ARF6-Myc with PIF4-GFP also with co-transfected bzr1-1D-Myc (interaction increased).
In test [5] the target is T3, RGA-GFP, in Arabidopsis mesophyll protoplasts (Arabidopsis thaliana) (UniProt Q9SLH3).
T3 sequence: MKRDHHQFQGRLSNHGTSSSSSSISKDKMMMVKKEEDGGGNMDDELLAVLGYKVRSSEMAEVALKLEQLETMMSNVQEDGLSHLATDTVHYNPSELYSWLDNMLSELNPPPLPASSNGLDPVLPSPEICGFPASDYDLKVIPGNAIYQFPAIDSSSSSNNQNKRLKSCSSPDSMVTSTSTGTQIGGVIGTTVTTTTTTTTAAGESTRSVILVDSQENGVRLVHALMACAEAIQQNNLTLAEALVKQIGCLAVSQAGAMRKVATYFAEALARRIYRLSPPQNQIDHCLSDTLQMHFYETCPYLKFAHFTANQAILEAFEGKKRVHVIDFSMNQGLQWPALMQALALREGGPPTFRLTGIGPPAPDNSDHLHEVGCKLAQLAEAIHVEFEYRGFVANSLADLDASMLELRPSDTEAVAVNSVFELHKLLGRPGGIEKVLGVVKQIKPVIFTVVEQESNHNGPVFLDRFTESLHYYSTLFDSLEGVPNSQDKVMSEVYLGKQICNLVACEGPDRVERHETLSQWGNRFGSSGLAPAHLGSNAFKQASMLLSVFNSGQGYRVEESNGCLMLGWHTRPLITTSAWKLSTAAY
The test is described as above.

In test [6] the target is T4, ARF6 (auxin response factor 6), yeast two-hybrid fusion (Arabidopsis thaliana) (UniProt Q9ZTX8).
T4 sequence: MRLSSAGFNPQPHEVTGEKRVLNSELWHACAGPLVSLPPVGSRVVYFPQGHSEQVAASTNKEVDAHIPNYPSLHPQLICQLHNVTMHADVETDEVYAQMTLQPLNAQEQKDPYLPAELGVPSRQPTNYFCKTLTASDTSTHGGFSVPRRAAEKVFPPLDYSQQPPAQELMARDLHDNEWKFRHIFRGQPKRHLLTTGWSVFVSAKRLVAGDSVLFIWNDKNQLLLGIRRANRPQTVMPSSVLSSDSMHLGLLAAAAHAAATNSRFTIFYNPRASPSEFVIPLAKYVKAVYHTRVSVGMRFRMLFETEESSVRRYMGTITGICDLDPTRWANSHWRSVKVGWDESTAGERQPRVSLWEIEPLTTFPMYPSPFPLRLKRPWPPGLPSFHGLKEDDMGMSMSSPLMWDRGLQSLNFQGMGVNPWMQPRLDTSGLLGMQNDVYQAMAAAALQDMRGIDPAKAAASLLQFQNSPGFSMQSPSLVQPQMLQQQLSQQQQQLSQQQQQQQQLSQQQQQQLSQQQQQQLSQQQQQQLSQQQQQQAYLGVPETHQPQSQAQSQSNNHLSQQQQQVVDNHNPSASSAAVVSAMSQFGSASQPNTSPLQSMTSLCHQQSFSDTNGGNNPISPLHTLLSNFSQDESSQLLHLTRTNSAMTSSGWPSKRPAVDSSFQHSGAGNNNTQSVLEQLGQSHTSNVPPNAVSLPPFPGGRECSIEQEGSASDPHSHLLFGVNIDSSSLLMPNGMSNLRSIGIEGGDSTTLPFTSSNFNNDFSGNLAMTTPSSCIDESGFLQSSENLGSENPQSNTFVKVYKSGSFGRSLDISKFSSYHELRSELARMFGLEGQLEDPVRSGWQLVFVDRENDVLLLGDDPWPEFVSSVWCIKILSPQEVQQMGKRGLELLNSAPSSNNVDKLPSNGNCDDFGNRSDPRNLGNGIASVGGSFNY
In words: two-hybrid; yeast; clones grown on synthetic dropout medium without histidine (−HIS) plus 1 mM 3AT (1 or 5 mM 3AT for the ARF6 fragments); activation domain and DNA binding domain fusions.

Test [7] concerns the target T5, ARF8 (auxin response factor 8), yeast two-hybrid fusion (Arabidopsis thaliana) (UniProt Q9FGV1).
T5 sequence: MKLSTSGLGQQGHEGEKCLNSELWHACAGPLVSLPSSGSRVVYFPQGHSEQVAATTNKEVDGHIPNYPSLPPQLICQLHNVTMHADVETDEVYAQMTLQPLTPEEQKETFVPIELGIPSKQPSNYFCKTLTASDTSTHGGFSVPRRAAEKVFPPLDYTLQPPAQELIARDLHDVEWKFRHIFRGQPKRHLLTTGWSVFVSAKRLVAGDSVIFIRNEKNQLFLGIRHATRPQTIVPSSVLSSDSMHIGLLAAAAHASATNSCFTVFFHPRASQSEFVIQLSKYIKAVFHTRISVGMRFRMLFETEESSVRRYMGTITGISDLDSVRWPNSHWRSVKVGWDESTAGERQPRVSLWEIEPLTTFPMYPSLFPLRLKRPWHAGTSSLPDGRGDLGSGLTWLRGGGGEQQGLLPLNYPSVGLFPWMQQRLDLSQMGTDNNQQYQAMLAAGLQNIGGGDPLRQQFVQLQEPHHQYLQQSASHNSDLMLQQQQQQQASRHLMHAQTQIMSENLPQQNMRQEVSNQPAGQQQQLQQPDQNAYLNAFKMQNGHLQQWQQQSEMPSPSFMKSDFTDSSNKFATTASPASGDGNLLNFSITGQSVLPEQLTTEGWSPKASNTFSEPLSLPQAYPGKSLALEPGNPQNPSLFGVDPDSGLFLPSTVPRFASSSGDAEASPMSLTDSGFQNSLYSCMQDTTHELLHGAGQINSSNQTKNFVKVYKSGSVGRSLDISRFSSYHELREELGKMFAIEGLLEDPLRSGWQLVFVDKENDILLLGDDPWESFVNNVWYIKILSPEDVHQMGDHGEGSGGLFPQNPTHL
Described as above.

Results are given in words; binding and its absence hold for the method and conditions named. For some of these results: In cells and extracts the contact can be indirect. Some binding calls cover weakened binding; strength is not graded here. Sequences can lack the tags named with a protein.

Here are results for six molecules from paper PMC4075450.

B1: ARF6-Myc, in transgenic Arabidopsis plants (protein, UniProt Q9ZTX8 1-935)
chain: T4 sequence
As to B1, the binding result in test [1] and in test [2] was “binds” in each case.

B2: ARF6-Myc, in Arabidopsis mesophyll protoplasts (protein, UniProt Q9ZTX8 1-935)
chain: T4 sequence
B2: the binding result in test [3], in test [4] and in test [5] was “binds” in each case.

B3: BEE2, yeast two-hybrid fusion (protein, UniProt Q93VJ4 1-304)
chain: MDLSVLDRLKWLQQQQMVSPEFLQILGSDGREELKRVESYLGNNNDELQSFRHFPEFGPDYDTTDGCISRTSSFHMEPVKNNGHSRAITLQNKRKPEGKTEKREKKKIKAEDETEPSMKGKSNMSNTETSSEIQKPDYIHVRARRGEATDRHSLAERARREKISKKMKCLQDIVPGCNKVTGKAGMLDEIINYVQSLQQQVEFLSMKLSVINPELECHIDDLSAKQFQAYFTGPPEGDSKQSIMADFRSFPLHQQGSLDYSVINSDHTTSLGAKDHTSSSWETHSQCLYNSLRTDSVSNFFSLK
In the case of B3, in test [6], the binding entry is given as “binds”.

B4: HBI1, yeast two-hybrid fusion (protein, UniProt Q9ZPW3 1-337)
chain: MLEGLVSQESLSLNSMDMSVLERLKWVQQQQQQLQQVVSHSSNNSPELLQILQFHGSNNDELLESSFSQFQMLGSGFGPNYNMGFGPPHESISRTSSCHMEPVDTMEVLLKTGEETRAVALKNKRKPEVKTREEQKTEKKIKVEAETESSMKGKSNMGNTEASSDTSKETSKGASENQKLDYIHVRARRGQATDRHSLAERARREKISKKMKYLQDIVPGCNKVTGKAGMLDEIINYVQCLQRQVEFLSMKLAVLNPELELAVEDVSVKQFQAYFTNVVASKQSIMVDVPLFPLDQQGSLDLSAINPNQTTSIEAPSGSWETQSQSLYNTSSLGFHY
In the case of B4, the binding entry in test [6] was “binds”.
The same measure, in the same setting: to RAAEVHNLSERRRRDRINERMKALQELIPHCSKTDKASILDEAIDYLKSL (domain or fragment, UniProt Q8W2F3 257-306) [bHLH domain of PIF4, yeast two-hybrid fusion] belongs “binds”.

B5: IAA3, yeast two-hybrid fusion (protein, UniProt Q38822 1-189)
chain: MDEFVNLKETELRLGLPGTDNVCEAKERVSCCNNNNKRVLSTDTEKEIESSSRKTETSPPRKAQIVGWPPVRSYRKNNIQSKKNESEHEGQGIYVKVSMDGAPYLRKIDLSCYKGYSELLKALEVMFKFSVGEYFERDGYKGSDFVPTYEDKDGDWMLIGDVPWEMFICTCKRLRIMKGSEAKGLGCGV
Take B5: the binding entry in test [6] and in test [7] was “binds” throughout.
